Where a name gives a salt, the structure may show the parent alone. This is one part of the list. Single values are uncertain, as repeats are few or missing.
System: Beas-2B AQP5-HiBiT reporter cells
Test: AQP5-HiBiT luminescence relative to vehicle (ratio to vehicle); higher = higher AQP5-HiBiT protein abundance
Settings: 10 µM; 18 h
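Note: monoclonal Beas-2B line stably carrying CMV promoter-driven AQP5-HiBiT, 5,000 cells per well in 384-well plates, lytic HiBiT plus LgBiT NanoLuc luminescence, FDA-approved drug library screen.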

SMILES | AQP5-HiBiT luminescence
C[C@]12CC[C@@H]3c4ccc(O)cc4CC[C@H]3[C@@H]1CC[C@@H]2O [Estradiol] | 0.911
CN(C)CCOc1ccc(/C(=C(/CCCl)c2ccccc2)c2ccccc2)cc1 [Toremifene] | 1.24
CCc1nn(CCCN2CCN(c3cccc(Cl)c3)CC2)c(=O)n1CCOc1ccccc1 [Nefazodone hydrochloride] | 1.13
Cc1cccc(Nc2ccncc2S(=O)(=O)NC(=O)NC(C)C)c1 [Torasemide] | 0.831
CC(=O)O[C@]1(C(C)=O)CC[C@H]2[C@@H]3C=C(C)C4=CC(=O)CC[C@]4(C)[C@H]3CC[C@@]21C [Megestrol acetate] | 0.719
CNC[C@H](O)c1cccc(O)c1 [Phenylephrine hydrochloride] | 0.617
C[C@H](CCC(=O)O)[C@H]1CC[C@H]2[C@@H]3CC[C@@H]4C[C@H](O)CC[C@]4(C)[C@H]3C[C@H](O)[C@]12C [Deoxycholic acid] | 0.731
COc1ccc(CN(CCN(C)C)c2ccccn2)cc1 [Pyrilamine maleate] | 1.77
Nc1nc2[nH]cc(CCc3ccc(C(=O)N[C@@H](CCC(=O)O)C(=O)O)cc3)c2c(=O)[nH]1 [Pemetrexed disodium] | 0.968
CC(C)NCC(O)COc1ccc(COCCOC(C)C)cc1 (racemic) [(±)-Bisoprolol hemifumarate] | 1.33
O=C1N=C(O)NC1(c1ccccc1)c1ccccc1 [Phenytoin sodium] | 1.01
Cc1cn([C@@H]2C[C@@H](O)[C@H](CO)O2)c(=O)[nH]c1=O [Telbivudine] | 1.08
CC1(C)O[C@@H]2C[C@H]3[C@@H]4CCC5=CC(=O)C=C[C@]5(C)[C@@]4(F)[C@@H](O)C[C@]3(C)[C@]2(C(=O)CO)O1 [Triamcinolone acetonide] | 0.599
